# The campaign covered roughly 320,000 compounds. About 9,100 (2.8%) were called active. The shares of active, inactive and inconclusive entries below differ from those in the screen. Calls come from the whole dose curve; as a rule, active = well fitted activation curve with a large enough effect; inconclusive = small, poorly fitted or top-dose-only effect; inactive = no such curve, though single readings can be large or run the other way. Potencies of inconclusive entries are left out as doubtful fits.
# Assay: qHTS Assay for Rab9 Promoter Activators; note: nearly all actives have a fitted effect of over 60% in size
# Details: Huh7 Rab9 promoter-luciferase reporter, luminescence, 24 h; series mostly up to 9.22 µM
# Summary of the method: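 Measured in stably transfected Huh7 cells bearing a Rab9 promoter–luciferase construct: 24 h compound treatment at 37 °C, followed by luminescence detection.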
# Potency is the fitted concentration of half-maximal effect; tags give direction and shape of the fitted curve.
row,SMILES,Potency
1,COc1ccc(-n2ncc3c(NCc4cccs4)ncnc32)cc1,active: 1.12 µM
2,COc1ccc(CCNC(=O)Cc2ccc(OCc3ccccc3)c(OC)c2[N+](=O)[O-])cc1OCc1ccccc1,inactive
3,CN(CCCC(=O)Nc1ccncc1)S(=O)(=O)c1ccc(Cl)cc1,inactive
4,c1ccc(-c2csc(-c3cccnc3)n2)cc1,"inconclusive [activator, single point]"
5,COc1cccc(NC(=S)N2CCC(NC(=O)C3CCCCC3)CC2)c1,inactive
6,COc1ccccc1NC(=O)/C=C\c1ccco1,"inconclusive [activator, single point]"
7,CCOC(=O)c1sc(Nc2nc3c(OC)cccc3s2)nc1C,"inconclusive [activator, single point]"
8,CCOc1ccc(CN(C)CCc2ccccn2)cc1,inactive
9,CCN(CC)c1ccc(C(=O)Nc2ccccc2)cc1[N+](=O)[O-],"inconclusive [activator, single point]"
10,O=C(CCn1c(=O)c2ccccc2n(Cc2cc(=O)n3ccccc3n2)c1=O)NCc1ccco1,inactive
11,O=C1CCCC(O)=C1C=Nc1ccc2c(c1)oc1ccccc12,"inconclusive [activator, partial curve]"
12,COc1ccc(NC(=S)NC(=O)/C=C/c2ccco2)cc1,"inconclusive [activator, single point]"
13,COc1ccccc1CNC(=O)[C@@H]1CCCN1S(=O)(=O)c1ccc(C)cc1,"inconclusive [activator, single point]"
14,COc1ccc(NC(=O)CSc2nnc(Cc3cccn3C)n2-c2ccc(C)cc2)cc1OC,inactive
15,Cc1c(Cl)cccc1NC(=O)CN(C1CCCCC1)S(C)(=O)=O,inactive
16,COC(=O)c1ccc(C)c(NC(=O)c2ccc(Cn3cc([N+](=O)[O-])cn3)o2)c1,inactive
17,CC1CC1C(=O)Nc1ccc(S(=O)(=O)N2CCCCC2)cc1 (centres undefined),inactive
18,O=C(Nc1ccccc1)C1=C[C@@H](C2CC2)C[C@@H](OCCCCO)O1,inactive
19,O=C1c2nc3cc(-c4ccco4)[nH]n3c(=O)c2CN1Cc1ccccc1,inactive
20,O=C(/C=C/c1cccs1)Nc1cccc(NC(=O)/C=C/c2cccs2)n1,"inconclusive [activator, single point]"
21,COc1ccc(Cc2nc(-c3ccc(-n4cccc4)cc3)no2)cc1,inactive
22,COc1ccc(CCN2C(=S)NC3CC2(C)Oc2ccc([N+](=O)[O-])cc23)cc1OC (centres undefined),inactive
23,COc1ccc(O)c(-c2cc(-c3ccc(F)cc3)n[nH]2)c1,"inconclusive [activator, single point]"
24,CCOc1cc(C(=O)Nc2cccnc2)cc(OCC)c1OCC,inactive
25,CCOc1ccc(NC(=O)Nc2ccon2)cc1,"inconclusive [activator, partial curve]"
26,Cc1ccc(-c2cc3c(nn2)-c2ccccc2C3=O)cc1,"inconclusive [activator, partial curve]"
27,Cc1nnc(NCCc2ccccc2)c2ccccc12,active: 1.41 µM

row,SMILES,Potency
1,COc1ccc(OCc2ccc(C(=O)O)cc2)cc1,"inconclusive [activator, partial curve]"
2,O=C(Nc1ccc2c(c1)OCCO2)c1cccnc1,active: 3.98 µM
3,CCOc1ccc(NC(=O)CSc2ccccc2N)cc1,"inconclusive [activator, partial curve]"
4,CC(=O)c1c(C)oc2ccc(NS(=O)(=O)c3ccc(C)cc3)cc12,inactive
5,Cc1ccc(NC(=O)c2ccc3ccccc3n2)nc1,active: 3.55 µM
6,Cc1ccc(/C=N/NC(=O)Nc2ccccc2)o1,active: 3.16 µM
7,Cc1cc(NC(=O)CSc2nc(C(C)C)nc3ccccc23)no1,inactive
8,Cc1ccc(OC(=O)c2cccc(S(=O)(=O)N3CCCC3)c2)c(-n2nc3ccccc3n2)c1,active: 3.98 µM
9,Cc1ccc(Oc2ccc(/C=N/O)cn2)cc1,"inconclusive [activator, single point]"
10,Cc1ccccc1-c1nc2ccccc2[nH]1,"inconclusive [activator, partial curve]"
11,Nc1cc(N)nc(SCC(=O)N2CCc3ccccc32)n1,"inconclusive [activator, partial curve]"
12,CCn1c(Cc2ccccc2)nnc1SCC(=O)Nc1ccc(N2CCOCC2)c(Cl)c1,inactive
13,CCc1ccc(NC(=O)Nc2ccncc2)cc1,"inconclusive [activator, single point]"
14,O=S(=O)(Oc1ccc(C(=S)N2CCOCC2)cc1)c1ccc(Cl)cc1,inactive
15,COc1ccc(Cc2noc(CN3CCCC(OCc4ccccn4)C3)n2)cc1OC (centres undefined),inactive
16,CCN(C(=O)c1cc2c(=O)n3ccccc3nc2s1)C1CCCCC1,"inconclusive [activator, partial curve]"
17,COc1ccc(NC(=O)c2ccc(-c3ccc(OC)cc3)s2)cc1,inactive
18,Cc1cccc(OCc2ccc(C(=O)N3CCOCC3)o2)c1,inactive
19,O=C(NNC(=O)c1ccccc1O)c1cc2ccccc2o1,"inconclusive [activator, partial curve]"
20,O=C(O)c1cccnc1Nc1ccc(Cl)cc1,"inconclusive [activator, partial curve]"
21,Brc1ccc(-c2nc(N/N=C/c3cccnc3)c3ccccc3n2)cc1,active: 2.51 µM
22,CCCCn1c(N)c(N(CC(C)C)C(=O)CC2CCCC2)c(=O)[nH]c1=O,inactive
23,O=C(C1CCN(S(=O)(=O)c2ccc(Cl)c(C(F)(F)F)c2)CC1)N1CCC1,inactive
24,Cc1nc(NC(=O)c2csc3ccccc23)sc1C,active: 1.26 µM
25,O=C(COc1ccc(Cl)cc1)Nc1nc(-c2cccs2)cs1,inactive
26,COc1cc(C2NC(=O)NC(C)=C2C(=O)OC(C)C)ccc1OC(=O)c1ccco1 (centres undefined),"inconclusive [activator, single point]"
27,COc1ccc2c(CC(=O)NCc3cccs3)coc2c1,"inconclusive [activator, single point]"
